Reference: PubChem BioAssay AID485344 (National Center for Advancing Translational Sciences (NCATS), 2010)
The whole screen tested about 340,000 compounds, of which about 6,900 (2%) were called active. Cut-off read from the data, not from the text of the source: active = inhibition above about 30%; inactive = below that, where a call was filed. The entries are a selection whose mix differs from that of the whole data set. Where no call is shown, the source filed none.

molecular target: D(2) dopamine receptor (Homo sapiens) (UniProt P14416); assay: HTS Assay for Allosteric Antagonists of the Human D2 Dopamine Receptor: Primary Screen for Antagonists; conditions: HEK293 TREx D2 cells, calcium flux, dopamine EC80; at 10 µM; stronger effect = higher value; note: 0% is about no effect
UniProt P14416, sequence (P14416 whole entry, looked up): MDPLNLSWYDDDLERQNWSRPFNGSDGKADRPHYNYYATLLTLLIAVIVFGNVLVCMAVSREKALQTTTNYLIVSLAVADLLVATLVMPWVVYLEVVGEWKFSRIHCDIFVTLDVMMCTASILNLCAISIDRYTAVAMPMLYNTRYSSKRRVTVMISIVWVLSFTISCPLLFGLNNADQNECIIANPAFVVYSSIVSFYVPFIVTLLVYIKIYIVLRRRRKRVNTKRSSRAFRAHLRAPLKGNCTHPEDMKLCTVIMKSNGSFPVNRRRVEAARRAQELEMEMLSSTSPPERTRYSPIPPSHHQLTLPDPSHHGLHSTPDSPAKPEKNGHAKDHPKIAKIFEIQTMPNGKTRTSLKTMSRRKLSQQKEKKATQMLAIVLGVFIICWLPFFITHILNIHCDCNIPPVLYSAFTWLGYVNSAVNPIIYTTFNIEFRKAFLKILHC
In short: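 Tetracycline-induced HEK293 TREx cells expressing D2 receptor forced-coupled to calcium signalling, loaded with no-wash calcium dye. Compounds added and calcium flux read 180 s, then dopamine added at EC80 and read a further 180 s.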

Row | Structure (SMILES) | inhibition
1 | Cc1nn(CC(=O)O)c(=O)c2cc3cc(F)ccc3n12 | 16.5%
2 | COc1ccc2c(CNCc3cccs3)c(C(=O)O)n(Cc3ccc(C)cc3)c2c1 | 17.7%
3 | Cc1ccc(C)c(N2CCN(C(=O)c3cc(C)nc4c3c(C)nn4-c3cccc(F)c3)CC2)c1 | -1.25%
4 | CCOc1ccc(C(=O)NCCc2sc(-c3ccc(OC)c(OC)c3)nc2C)cc1 | 0.706%
5 | Cc1ccccc1OCC(=O)Nc1sc2c(c1C(=O)OC(C)C)CCCC2 | -2.37%
6 | CCn1c(C(=O)NCc2ccc(OC(C)C)cc2)cc2oc3ccccc3c21 | -6.66%
7 | CCOc1ccc(-n2c(SCC(=O)N3CCC(C)CC3)nc3c([nH]c4ccccc43)c2=O)cc1 | -14.5%
8 | Cc1cccc(CCNc2ncnc3onc(-c4ccc(Cl)cc4)c23)c1 | -1.27%
9 | S=C(NCCc1ccccc1)N1CCn2cccc2C1c1cccnc1 (stereo not given) | active: 37.3%
10 | COC(=O)c1ccc(NC(=O)CN(CCc2ccccc2)S(=O)(=O)c2ccc(OC)cc2)cc1 | -2.33%
11 | Cc1cccc(Cn2nc(C)n3c(cc4cc(C)ccc43)c2=O)c1 | -2.21%
12 | CCc1ccc2oc(C(=O)Nc3c(C)n(C)n(-c4ccccc4)c3=O)cc(=O)c2c1 | -10.7%
13 | N#Cc1ccc(C(=O)NCc2ccc3c(c2)CCN3C(=O)c2ccc(F)cc2)cc1 | 5.26%
14 | CCOC(=O)c1ccc(N2C(=O)c3n[nH]c(C)c3C2c2ccccc2OC)cc1 (stereo not given) | -7.47%
15 | COc1cc(/C=C2\SC(=Nc3ccccc3)NC2=O)cc(Cl)c1O | active: 38.5%
16 | Cc1ccc(Nc2ncc(C(=O)N3CCN(c4ccc(F)cc4)CC3)c3ccccc23)cc1Cl | -5.07%
17 | CCOc1ccc(-c2nonc2NC(=O)c2oc3cc(C)c(C)cc3c2C)cc1OCC | -23.8%
18 | CN(C(=O)N1CCN(c2ccccn2)CC1)c1ccccc1 | active: 38.5%
19 | Cc1ccc(NC(=O)C2CCCN2S(=O)(=O)c2cccc3nsnc23)c(C)c1 (stereo not given) | -7.93%
20 | Cc1ccc(C)c(-n2c3nc(=O)[nH]c(=O)c-3cc3c(C)nn(-c4ccccc4)c32)c1 | -21.9%
21 | COc1cccc(CNS(=O)(=O)c2cc3[nH]c(=O)c(=O)[nH]c3cc2C)c1 | -5.55%
22 | Cc1ccc(CNC(=O)CC(C)CC2=NS(=O)(=O)c3ccccc3N2)cc1 (stereo not given) | 26.5%
23 | CCc1ccc(N2CCn3c2nc2c3c(=O)n(C/C=C/c3ccccc3)c(=O)n2C)cc1 | -6.09%
24 | COc1ccc(NC(=O)c2c(NCc3ccc(N(C)C)cc3)sc3c2CCC3)cc1 | -13.1%

Row | Structure (SMILES) | inhibition
25 | CCOc1ccccc1NC(=O)N(Cc1ccc(F)cc1)C1CCN(CC)CC1 | 2.82%
26 | O=C(NCc1nc2ccccc2[nH]1)c1cccc(S(=O)(=O)N2CCOCC2)c1 | active: 37.8%
27 | Cc1ccsc1CN(C(=O)c1oc2ccc(F)cc2c1C)C1CCS(=O)(=O)C1 (stereo not given) | -0.334%
28 | O=C(COC(=O)c1cc[n+]([O-])cc1)NCCc1ccc(Cl)cc1Cl | active: 33.7%
29 | CCOC(=O)c1cccc(NC(=O)c2cc3c(=O)n(C)c4ccccc4c3n2C)c1 | -9.33%
30 | CCc1nnc2c(Nc3cccc(F)c3)nc3ccc(C(=O)c4ccccc4)cc3n12 | -5.54%
31 | Cc1ccc(CNC(=O)CCN2C(=O)COc3ccc(C)cc32)cc1 | -18.4%
32 | Cc1cc(C)cc(NC(=O)c2ccc3c(c2)nnn3C2CCCC2)c1 | -3.89%
33 | Cc1ccc(NC2=C(CC(=O)O)C(c3ccc(F)cc3)N(c3ccc(C)cc3)C2=O)cc1 (stereo not given) | 23.9%
34 | N#CC1=C(N)OC2=C(CC/C2=C\c2ccc(F)cc2)C1c1ccc(F)cc1 (stereo not given) | active: 37.2%
35 | Cc1ccc(N(Cc2ccccc2)C(=O)c2ccc(F)c(S(=O)(=O)N3CCOCC3)c2)cc1 | active: 59%
36 | CCN(CC)CCOC(=O)c1ccc(NC(=O)c2nn(C)c3c2COc2ccccc2-3)cc1 | 12.2%
37 | CC1CCN(S(=O)(=O)c2nnc(NC(=O)c3ccc(C(C)C)cc3)s2)CC1 | 20%
38 | O=C(CCCN1C(=O)c2cccnc2Oc2ccc(Cl)cc21)NCc1ccccc1F | 6.42%
39 | O=C(c1cc(-c2cccc(Cl)c2)on1)N1CCN(c2ccccc2)CC1 | 7.98%
40 | CC(C)c1cnc2c(c1SCC(=O)Nc1ccc(OC(F)(F)F)cc1)c(=O)n(C)c(=O)n2C | 11.2%
41 | Cc1ccc(S(=O)(=O)C(CNC(=O)c2ccc(F)c(F)c2)c2ccco2)cc1 (stereo not given) | 12.2%
42 | O=C(CSc1oc(-c2ccco2)nc1S(=O)(=O)c1ccc(Br)cc1)c1ccccc1 | 1.66%
43 | CCS(=O)(=O)c1ccc(O)c(Nc2cc(C)nc(SC)n2)c1 | -11.4%
44 | CCCCn1c(=O)c2oc3ccccc3c2n(Cc2cccc(F)c2)c1=O | 7.55%
45 | Cc1ccc(COc2ccc(-c3cc(C(F)(F)F)n4nc(C)cc4n3)cc2)cc1 | -14.1%
46 | O=S(=O)(Nc1nc2ccccc2nc1Nc1ccccc1Br)c1ccccc1 | 3.31%
47 | COc1ccc(CNS(=O)(=O)c2cc3c4c(c2)CCN4C(=O)CC3)cc1 | -13.4%
48 | O=C(CSc1nc2c([nH]c3ccccc32)c(=O)n1-c1cccc(Cl)c1)NCC1CCCO1 (stereo not given) | 27.3%

Row | Structure (SMILES) | inhibition
49 | O=C(Cn1c2ncccc2c(=O)n1-c1ccccc1)NCc1ccccc1Cl | 5.67%
50 | CCOc1ccc(-c2cn(-c3ccc(C)cc3)c(SCC(=O)Nc3ccc(C)cc3)n2)cc1 | -26.9%
51 | Cc1ccc(NC(=O)Cc2coc3ccc(C(C)C)cc23)c(C)c1 | -5.88%
52 | CC1CCc2c(sc(NC(=O)c3cc(-c4cccc(Cl)c4)on3)c2C(N)=O)C1 (stereo not given) | -10.1%
53 | COc1ccc(CCNC(=O)CSc2cn(CCNC(=O)c3cccc(C(F)(F)F)c3)c3ccccc23)cc1OC | -12.9%
54 | CCC1CN(C(=O)Nc2cccc3c2CCCC3)c2cc(Cl)ccc2O1 (stereo not given) | 0.0912%
55 | O=C(Cn1ncc2ccsc2c1=O)N1CCN(c2ccc(F)cc2)CC1 | 4.53%
56 | Cc1ccc(-n2ncc3c(N4CCC(C(N)=O)CC4)ncnc32)cc1 | -2.36%
57 | Cc1ccc(S(=O)(=O)N2CCc3cc(C(=O)Nc4ccc(C(F)(F)F)cc4)ccc32)cc1 | -13.1%
58 | Cc1oc(-c2ccccc2Cl)nc1CS(=O)CC(=O)NCc1ccc(Cl)cc1 (stereo not given) | 6.13%
59 | Cc1cc(C(F)F)n2nc(C(=O)Nc3ccc(C(C)C)cc3)nc2n1 | 4.48%
60 | COC(=O)c1sc2ncccc2c1-n1c(C)ccc1C | 17.4%
61 | COc1ccccc1CNS(=O)(=O)c1ccc2c(c1)CC(=O)N2C | -19.5%
62 | CCOC(=O)N1CCN(C(=O)c2c(C)nn(-c3cccc(C)c3)c2-n2cccc2)CC1 | -2.83%
63 | Cc1ccc(C)c(N2CCN(C(=O)CCS(=O)(=O)c3cc4c(cc3Cl)NC(=O)CO4)CC2)c1 | 11%
64 | c1ccc2c(c1)OC(CCCN1CCCCC1)c1ccccc1S2 (stereo not given) | active: 87%
65 | Cc1ccc2oc3c(c(=O)c2c1)C(c1ccccc1F)N(CCCN(C)C)C3=O (stereo not given) | 9.55%
66 | O=C(NCc1ccc2c(c1)CCN2C(=O)c1ccccc1)c1ccccc1 | 5.15%
67 | COc1ccc(CNC(=O)C2=C(C)C(=O)OC23CCCCC3)cc1 | -27%
68 | COc1ccc(-n2ncc3c2ncn2nc(COc4ccc(Cl)cc4)nc32)cc1 | -10.9%
69 | CCCSc1nnc2c(n1)OC(c1ccc(Br)s1)Nc1ccccc1-2 (stereo not given) | 13.7%
70 | CC(C)C(=O)N1c2nc(-c3ccco3)nn2C2(CCCCC2)[C@@H]2CCCC[C@@H]21 | 9.86%
71 | CC(=O)Nc1ccc(S(=O)(=O)N2CCC(c3nnc(-c4ccc(C)cc4)o3)CC2)cc1 | -7.94%
72 | Cc1oc2c(cc(NS(=O)(=O)c3ccc(C(C)C)cc3)c3ccccc32)c1C(=O)O | 2.11%

Row | Structure (SMILES) | inhibition
73 | Cc1ccc(CCNc2ncnc3onc(-c4ccc(F)cc4)c23)cc1 | 2%
74 | COc1cccc(CNC(=O)Cn2c(=O)n3nc(-c4cccc(F)c4)nc3c3ccccc32)c1 | 21.7%
75 | CCN(CC)C(=O)c1sc2c(c1C)c(=O)n(-c1ccc(Cl)c(Cl)c1)c(=O)n2Cc1cc(=O)n2ccccc2n1 | -4.41%
76 | O=C(Cn1c(=O)n(CCCS(=O)(=O)C2CCCCC2)c(=O)c2ccccc21)Nc1ccccc1C(F)(F)F | 7.33%
77 | COc1ccc(NC(=O)CCn2c(=O)c3cccn3c3cccnc32)cc1Cl | -7.4%
78 | Cc1ccc(S(=O)(=O)c2[nH]c(-c3ccccc3)nc2SCC(N)=O)cc1 | 4.12%
79 | Cc1cc2c(cc1S(=O)(=O)N1CCN(c3cccc(C)c3C)CC1)OCC(=O)N2 | active: 50%
80 | O=C1CCCc2cc(S(=O)(=O)N3CCCC(C(=O)Nc4ccc(F)c(Cl)c4)C3)ccc2N1 (stereo not given) | 2.6%
81 | CCOc1ccc(C(=O)Nc2nnc(S(=O)(=O)Nc3ccccc3)s2)cc1 | -13%
82 | CSc1cccc(Nc2cc(C(=O)NCCc3ccc(Cl)cc3)c3ccccc3n2)c1 | 2.1%
83 | Cn1c(=O)[nH]c(=O)c2c1nc(CN1CCN(c3ccccc3F)CC1)n2CCc1ccccc1 | active: 46.1%
84 | CC1CN(C(=O)N2CCC(C(=O)N3CCN(c4ccccc4)CC3)CC2)c2cc(Cl)ccc2O1 (stereo not given) | -4.6%
85 | CCOc1ccc2nc(N3CCC(C(=O)Nc4ccccc4CC)CC3)sc2c1 | -5.75%
86 | COc1ccc(C2/C=C\CN(C(=O)c3ccc(C)cc3)[C@H](Cc3ccccc3)C(=O)N2Cc2ccc(F)cc2)cc1 (stereo not given in full) | active: 41%
87 | COC(=O)COc1ccc2oc(-c3ccc(OC)cc3)cc(=O)c2c1 | -6.92%
88 | COc1ccc(N2CCN(C(=O)c3cnn(-c4ccc(F)cc4)c3-n3cccc3)CC2)cc1 | -1.25%
89 | CCC1CCCCN1CCCNC(=O)CN1C(=O)c2cccnc2Oc2ccc(C)cc21 (stereo not given) | 7.71%
90 | O=C(Nc1ccc(Br)cc1F)C1CCN(c2nc3ccccc3[nH]2)CC1 | -9.73%
91 | CCOc1ccccc1CNC(=O)c1ccc(N2Cc3ccccc3Oc3ncccc32)s1 | 7.21%
92 | COc1ccc(CNC(=O)CCCn2nc(C)c3sc4ccccc4c3c2=O)cc1OC | 7.98%
93 | Cc1cccc(NC(=O)N2CCN(C(=O)c3nsc4ccccc34)CC2)c1C | 16.4%
94 | Cc1ccc(CNC(=O)c2cccn2-c2nnc(N3CCCC3)s2)cc1 | -0.166%
95 | Cc1ccc2c(CC(=O)Nc3ccc(S(=O)(=O)N4CCCCC4C)cc3)coc2c1 (stereo not given) | 0.119%
